Results reported in the supplement of paper PMC4604168 (melanoma cell lines).
This is one part of the list. Most values come without repeats; read them as rough.

System: A101D
Assay: cell count relative to DMSO control; melanoma cells; higher = more viable cells
Conditions: library dose: standard library concentration; 72 h
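Further: cells treated in 1,536-well plates, then fixed and DAPI-stained, with nuclei counted from automated high-throughput microscope images.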

Row | Compound | cell count [%]
1 | CC[C@]1(O)C[C@H]2CN(CCc3c([nH]c4ccccc34)[C@@](C(=O)OC)(c3cc4c(cc3OC)N(C=O)[C@H]3[C@@](O)(C(=O)OC)[C@H](OC(C)=O)[C@]5(CC)C=CCN6CC[C@]43[C@@H]65)C2)C1 [vincristine] + COc1ccc(C2=N[C@@H](c3ccc(Cl)cc3)[C@@H](c3ccc(Cl)cc3)N2C(=O)N2CCNC(=O)C2)c(OC(C)C)c1 [Nutlin-3] (first compound 0.0005 µM, partner dose 0.5 µM) | 53
2 | Cc1cc(Nc2cc(N3CCN(C)CC3)nc(Sc3ccc(NC(=O)C4CC4)cc3)n2)n[nH]1 [Tozasertib] + COc1ccc(Cl)c(Nc2nc3ccccc3nc2NS(=O)(=O)c2cccc(NC(=O)C(C)(C)N)c2)c1 [XL147] (first compound 0.03 µM, partner dose 4 µM) | 79.7
3 | N#CC[C@H](C1CCCC1)n1cc(-c2ncnc3[nH]ccc23)cn1 [ruxolitinib] + CS(=O)(=O)c1ccc(C(=O)Nc2ccc(Cl)c(-c3ccccn3)c2)c(Cl)c1 [vismodegib] (first compound 5 µM, partner dose 5 µM) | 116
4 | Cc1cc(Nc2cc(N3CCN(C)CC3)nc(Sc3ccc(NC(=O)C4CC4)cc3)n2)n[nH]1 [Tozasertib] + Nc1ncn([C@H]2C[C@H](O)[C@@H](CO)O2)c(=O)n1 [decitabine] (first compound 0.03 µM, partner dose 0.5 µM) | 65.9
5 | CC[C@]1(O)C[C@H]2CN(CCc3c([nH]c4ccccc34)[C@@](C(=O)OC)(c3cc4c(cc3OC)N(C=O)[C@H]3[C@@](O)(C(=O)OC)[C@H](OC(C)=O)[C@]5(CC)C=CCN6CC[C@]43[C@@H]65)C2)C1 [vincristine] + O=c1[nH]nc(Sc2ncc([N+](=O)[O-])s2)n1-c1ccc2c(c1)OCCO2 [BI78D3] (first compound 0.0005 µM, partner dose 1 µM) | 60.9
6 | N#CC[C@H](C1CCCC1)n1cc(-c2ncnc3[nH]ccc23)cn1 [ruxolitinib] + COc1ccc(Cl)c(Nc2nc3ccccc3nc2NS(=O)(=O)c2cccc(NC(=O)C(C)(C)N)c2)c1 [XL147] (first compound 5 µM, partner dose 4 µM) | 117
7 | N#CC[C@H](C1CCCC1)n1cc(-c2ncnc3[nH]ccc23)cn1 [ruxolitinib] + CC(C)C[C@H](NC(=O)[C@H](Cc1ccccc1)NC(=O)c1cnccn1)B(O)O [Bortezomib] (first compound 5 µM, partner dose 0.005 µM) | 18.4
8 | CC[C@]1(O)C[C@H]2CN(CCc3c([nH]c4ccccc34)[C@@](C(=O)OC)(c3cc4c(cc3OC)N(C=O)[C@H]3[C@@](O)(C(=O)OC)[C@H](OC(C)=O)[C@]5(CC)C=CCN6CC[C@]43[C@@H]65)C2)C1 [vincristine] + Cc1cc(N2CCOCC2)cc2[nH]c(-c3c(NC[C@@H](O)c4cccc(Cl)c4)cc[nH]c3=O)nc12 [BMS536924] (first compound 0.0005 µM, partner dose 1 µM) | 33.7
9 | Cc1cc(Nc2cc(N3CCN(C)CC3)nc(Sc3ccc(NC(=O)C4CC4)cc3)n2)n[nH]1 [Tozasertib] + CN(c1ncccc1CNc1nc(Nc2ccc3c(c2)CC(=O)N3)ncc1C(F)(F)F)S(C)(=O)=O [PF562271] (first compound 0.03 µM, partner dose 0.4 µM) | 87.4
10 | CC[C@]1(O)C[C@H]2CN(CCc3c([nH]c4ccccc34)[C@@](C(=O)OC)(c3cc4c(cc3OC)N(C=O)[C@H]3[C@@](O)(C(=O)OC)[C@H](OC(C)=O)[C@]5(CC)C=CCN6CC[C@]43[C@@H]65)C2)C1 [vincristine] + C[C@@H](Oc1cc(-c2cnn(C3CCNCC3)c2)cnc1N)c1c(Cl)ccc(F)c1Cl [Crizotinib] (first compound 0.0005 µM, partner dose 1 µM) | 72.8
